The campaign covered roughly 310,000 compounds. About 18,000 (5.8%) were called active. The inconclusive results got no clear call from the source; some entries with a clear call stand among them for comparison. Calls follow the shape of the dose curve; as a rule, active = well fitted inhibition curve with a large enough effect; inconclusive = small, poorly fitted or top-dose-only effect, or another doubt; inactive = no such curve, though single readings can be large or run the other way. No potency is given beside an inconclusive call; the fits are too rough.
experiment: Primary qHTS for delayed death inhibitors of the malarial parasite plastid, 48 hour incubation; conditions: P. falciparum luciferase growth in erythrocytes; series mostly up to 28.7 µM; activity change, negative = inhibition: at the top concentration
How it was run: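 Luciferase-expressing parasites in RBCs, 2% Hct / 0.1% parasitemia final; RPMI 1640 + 0.5% Albumax; 37 C, 5% CO2, one generation; luminescence read-out, lower signal = inhibition.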
% is scaled to controls: 0 for no effect and ±100 for the full control effect; potency is read from the fitted curve at half-maximal effect; tags tell the direction and shape of the fitted curve.

| Structure (SMILES) | activity change, negative = inhibition | Potency |
| --- | --- | --- |
| CCCCCCCC(=O)Nc1cc(C(=O)NCc2ccc(C)cc2)ccc1N1CCC2(CC1)CC(c1ccccc1)=NO2 | inactive: -15.2% | – |
| CCC1(C)CC(CCNCc2ccc(N(C)C)cc2)(c2ccc(F)cc2)CCO1 (configuration not stated) | – | inconclusive [inhibitor, single point] |
| Cc1ccc(NS(=O)(=O)c2cccc(C(=O)NCCc3c[nH]c4ccccc34)c2)c(C)c1 | – | inconclusive [inhibitor, partial curve] |
| CC(C)c1onc(C(=O)N2CCC(C(N)=O)CC2)c1[N+](=O)[O-] | – | inconclusive [inhibitor, partial curve] |
| CCC(=O)NC(c1ccc(Cl)cc1Cl)c1ccc2cccnc2c1O (configuration not stated) | – | active: 2.94 µM |
| CN(C)C(=O)Cn1c(SCC(=O)NCc2ccc3c(c2)OCO3)nc2ccccc21 | inactive: 2.42% | – |
| Cc1ccccc1CSCCNC(=O)Nc1ccccc1 | – | inconclusive [inhibitor, single point] |
| N/C(COc1cccc(C(F)(F)F)c1)=N\NC(=O)c1cccnc1Oc1ccccc1 | inactive: 41.7% | – |
| Clc1ccc(OCCn2cnc3ccccc32)c(Cl)c1 | inactive: -83% | – |
| Cc1nnc(SC(C)C(=O)Nc2ncc(Cl)cc2Cl)n1Cc1ccccc1 (configuration not stated) | – | inconclusive [inhibitor, partial curve] |
| COc1ccc(CSc2nnc(-c3ccncc3)n2C)cc1F | – | inconclusive [inhibitor, full curve] |
| COc1cccc2c(Cl)c(CC=C(Cl)Cl)c(C)nc12 | – | inconclusive [inhibitor, single point] |
| COC(=O)c1sc(-c2ccccc2)cc1NC(=O)C1CC1 | – | inconclusive [inhibitor, single point] |
| COc1ccc(C2=CC(=O)C[C@H](c3ccc(F)cc3)C2)cc1F | – | inconclusive [inhibitor, partial curve, poor fit] |
| COc1ccc(O)c(CN2CCCC(C(=O)c3ccccc3SC)C2)c1 (configuration not stated) | – | active: 5.22 µM |
| N=C1SCC(=O)N1c1ncc(Cc2ccc(F)cc2)s1 | – | inconclusive [inhibitor, single point] |
| CNc1oc(-c2ccc(Cl)cc2)nc1C#N | inactive: 123% | – |
| Cc1cccc(NC(=O)/C=C/c2ccc([N+](=O)[O-])s2)c1 | – | inconclusive [inhibitor, single point] |
| O=C(Nc1cccc(S(=O)(=O)N2CCOCC2)c1)C1CC(=O)N(c2ccc3c(c2)OCCO3)C1 (configuration not stated) | – | inconclusive [inhibitor, partial curve, poor fit] |
| COc1ccc(CN(C)C(C)C(=O)NC2CCCc3ccccc32)cc1 (configuration not stated) | – | inconclusive [inhibitor, single point] |
| COc1ccc(C2C(C#N)=C(N)N(c3ccccc3C#N)C3=C2C(=O)CCC3)cc1CN1CCCC1 (configuration not stated) | inactive: -24.4% | – |
| COc1ccccc1NC(=O)CC1CCCC1 | inactive: 10% | – |
| Cn1cccc1C(C(=O)NC1CCCCC1)N(C(=O)Cc1cccs1)c1ccc2c(c1)OCO2 (configuration not stated) | – | inconclusive [inhibitor, full curve, poor fit] |
| CCCc1ccc(-c2cc(C(=O)NN3CCOCC3)c3ccccc3n2)cc1 | inactive: 89.3% | – |

| Structure (SMILES) | activity change, negative = inhibition | Potency |
| --- | --- | --- |
| C/C(=N\NC(=O)c1ccc(Cn2cc(Br)cn2)o1)c1cccc(NC(=O)C(C)C)c1 | inactive: -15% | – |
| O=C(Cn1ncc2c3ccccc3n(Cc3ccccc3)c2c1=O)NCCCN1CCCC1=O | – | inconclusive [inhibitor, single point] |
| O=C(COC(=O)c1ccccc1Nc1ccc(SC(F)F)cc1)NCc1ccco1 | – | inconclusive [inhibitor, single point] |
| CCOC(=O)C(=O)N(Nc1ccccc1C)c1ccccc1C | – | inconclusive [inhibitor, single point] |
| O=C(/C=C/c1ccccc1)c1ccc2c3c(cccc13)CC2 | inactive: -95.8% | – |
| c1c(C2CCCCC2)n[nH]c1CN1CCCCC1 | inactive: -26.6% | – |
| COc1cccc(/C=N/NC(=O)c2cccc(N3CCCC3=O)c2)c1 | inactive: 65.2% | – |
| CC(=O)N1c2ccccc2NC2=C(C(=O)CCC2)C1c1ccco1 (configuration not stated) | – | inconclusive [inhibitor, partial curve, poor fit] |
| Cc1ccc(S(=O)(=O)N(C)c2ccc(OC(C)C(=O)N3CCCC3)cc2)cc1C (configuration not stated) | – | active: 11.7 µM |
| COc1ccccc1-n1c2nc3ccccc3nc2c2c(=O)n(-c3cc(C)cc(C)c3)cnc21 | – | active: 13.1 µM |
| Cc1ccc(CN(Cc2ccco2)C(=O)c2ccco2)cc1 | inactive: -0.583% | – |
| COc1ccccc1OCCn1cc(C(=O)O)c2ccccc21 | inactive: 7.46% | – |
| N#Cc1nc(-c2ccc(F)cc2)oc1NCc1cccc2c1OCO2 | inactive: 49.4% | – |
| O=C(Nc1sc2c(c1-c1nc3ccccc3[nH]1)CCCC2)C1CCCC1 | – | active: 11.7 µM |
| Cc1[nH]c(C)c(S(=O)(=O)N2CCN(c3cccc(C(F)(F)F)c3)CC2)c1C(=O)N1CCCCC1 | – | inconclusive [inhibitor, single point] |
| CCC1SC2=NC(C)=C(C(=O)OCCOC)C(/C=C/c3ccccc3OC)N2C1=O (configuration not stated) | – | inconclusive [inhibitor, partial curve] |
| COC(=O)c1sc2cc([N+](=O)[O-])cc(SCC(C)C)c2c1N | inactive: 42.4% | – |
| C=CCn1cnnc1SCC(=O)NCC1COc2ccccc2O1 (configuration not stated) | – | inconclusive [inhibitor, partial curve] |
| CC(C)(C)c1ccc(/C=N/OCC(=O)NCc2ccc(F)cc2)cc1 | – | inconclusive [inhibitor, single point] |
| O=c1[nH]c2cc(C(F)(F)F)ccc2n1-c1cc(C(F)(F)F)ccc1O | – | inconclusive [inhibitor, single point] |
| O=c1/c(=C/c2ccc([N+](=O)[O-])cc2)sc2n1CCCN=2 | inactive: 97.9% | – |
| O=C(NC1CCCCC1)c1cc2nc3c(c(C(F)(F)F)n2n1)CCCC3 | inactive: -66.3% | – |
| Cc1cccc(N2CCN(C(=O)c3cn(C)c(=O)c4c3c3ccccc3n4C)CC2)c1C | – | inconclusive [inhibitor, partial curve, poor fit] |
| c1ccc(CN2CCN(Cc3nnc(-c4ccccc4)o3)CC2)cc1 | inactive: 19% | – |

| Structure (SMILES) | activity change, negative = inhibition | Potency |
| --- | --- | --- |
| Cc1ccc(CN2CCN(/N=C/c3ccc(C)s3)CC2)c(C)c1 | inactive: -12.8% | – |
| Cc1ccc(S(=O)(=O)NC(CC(=O)O)c2ccco2)cc1 (configuration not stated) | – | inconclusive [inhibitor, partial curve, poor fit] |
| O=C(/C=C/c1ccco1)N(Cc1cccc(Cl)c1)C1CCS(=O)(=O)C1 (configuration not stated) | – | inconclusive [inhibitor, single point] |
| Nc1nnc(-c2ccccc2Cl)s1 | – | inconclusive [inhibitor, full curve, poor fit] |
| O=C(c1[nH]nc2c1CCc1ccccc1-2)N1CCN(Cc2ccc3c(c2)OCO3)CC1 | – | active: 8.28 µM |
| Cc1nc(Nc2cccc(C(F)(F)F)c2)nc2c1C(=O)CC(C)C2 (configuration not stated) | inactive: 4.37% | – |
| CCOC(=O)Nc1ccc2c(c1)N(C(=O)N(C)C)c1ccccc1CC2 | – | inconclusive [inhibitor, single point] |
| Cc1cc(=O)oc2c3c(cc(OCC(=O)NCCCn4ccnc4)c12)OC(C)(C)CC3 | – | inconclusive [inhibitor, single point] |
| CC1CC(C)CN(C(=O)CCCn2c(=O)c3cccn3c3cccnc32)C1 (configuration not stated) | – | inconclusive [inhibitor, single point] |
| CC(=O)c1c(C)c(C)c2n1CCn1c(C)ccc1-2 | – | inconclusive [inhibitor, single point] |
| COc1ccc(-n2c(=O)c3c(C)c(C)sc3n(Cc3ccc(F)cc3)c2=O)c(OC)c1 | – | inconclusive [inhibitor, partial curve, poor fit] |
| CCOC(=O)c1ccccc1NC(=O)COC(=O)C(Cc1c[nH]c2ccccc12)NC(C)=O (configuration not stated) | inactive: 15.1% | – |
| COc1cc(/C(C)=N/NC(=S)NC(C)C)cc(OC)c1OC | – | inconclusive [inhibitor, partial curve, poor fit] |
| O=C(Nc1ccncc1)C1c2ccccc2Oc2ccccc21 | – | active: 5.86 µM |
| CC(C)OC(=O)C(C(=O)C(F)(F)F)c1cc(NS(=O)(=O)c2ccc3ccccc3c2)c2ccccc2c1O (configuration not stated) | – | active: 9.28 µM |
| CCNc1nc(NCC)n2c(SCC(=O)Nc3ccc(NC(C)=O)cc3)nnc2n1 | – | inconclusive [inhibitor, single point] |
| COc1ccc(C(=O)CC(=O)c2ccccc2O)cc1 | – | inconclusive [inhibitor, single point] |
| O=C(NCCCN1CCOCC1)c1cc(S(=O)(=O)N2CCN(c3ccccc3)CC2)ccc1Cl | – | inconclusive [inhibitor, single point] |
| C/C(CC(=O)Nc1cccc2c1CCCC2)=N\NC=O | inactive: -4.27% | – |
| O=C(COc1ccc(Cl)cc1Cl)N(C1CCCCC1)C1CCS(=O)(=O)C1 (configuration not stated) | – | inconclusive [inhibitor, single point] |
| CCC(C(=O)OCC(=O)N1CCN(c2ccc(OC)cc2)CC1)c1ccccc1 (configuration not stated) | – | inconclusive [inhibitor, single point] |
| COc1ccc(CNC(=O)[C@H](C)NC(=O)C2CCN(S(=O)(=O)c3ccccc3)CC2)cc1 | inactive: 19.1% | – |
| CCC(NC(=O)c1ccccc1NC(=O)c1ccccc1)C(=O)OC (configuration not stated) | – | active: 2.08 µM |
| Cc1cc(C)cc(NC(=O)NCC2CCN(Cc3cc(C)ccc3C)CC2)c1 | – | inconclusive [inhibitor, partial curve, poor fit] |
